Read counts are not given, so values of variants with three or more changes are uncertain.
B1: LINE1-full (parent)
chain: UACGUAGGUGGUUUUCCCCUGAUAGUGCUAAGGGGGCCUGGAAGUUUGGACUGGGCAGAGCUCAACACAGCGUGGCAAAGUGGCUGUGGCUAGACUGCCUCUCUGGAUUCCUCGUCACUCAGCAGGGCAUCUCUGAGAGAAAUGCC

Variants of: B1
Assay: self-cleavage, relative activity (ratio to wild type); higher = more cleavage; in vitro, sequencing; the parent is a self-cleaving ribozyme

| Variant | self-cleavage |
| --- | --- |
| UACGUAGGUGGUUUUCCCCUGAUAGUGCUAAGGGGGCCUGGAAGUUCGGACUGGGCAGAGCCCAACACAGCGUGGCAAAGUGGCUGUGGCUAGACUGCCUCUCUGGAUUCCUCGUCACUCAGCAGGGCAUCUCUGAGAGAACUGCC [U47C U62C A142C] | 0 |
| UACGUAGGUGGUUUUCCCCUGAUAGUGCUAAGGGGGCCUGGAAGUUCGGACUGGGCAGAGCUCAACACAGCGUGGCAAAGUGGCUGUGGCUAGACUGCCUCUCUGGAUUCCUCGUCACUCAGCAGGGCAUCUCUGUGAGGAUUGCC [U47C A136U A140G A142U] | 1.31 |
| UACGUAGGUGGUUUUCCCCUGAUAGUGCUAAGGGGGCCUGGAAGUUCGGACUGGGCAGAGCUCGACACAGCGUGGCAAAGUGGCUGUGGCUAGACUGCCUCUCUGGAUUCCUCGUCACUCAGCAGGGCAUCUCUGAGAGAGAUGCC [U47C A64G A141G] | 0.36 |
| UACGUAGGUGGUUUUCCCCUGAUAGUGCUAAGGGGGCCUGGAAGUUCGGACUGGGCAGAGCUCAACACAGUGUGGCAAAGUGGCUGUGGCUAGACUGCCUCUCUGGAUUCCUCGUCACUCAGCAGGGCAUCUCUGAGAGAGAUGCC [U47C C71U A141G] | 1.87 |
| UACGUAGGUGGUUUUCCCCUGAUAGUGCUAAGGGGGCCUGGAAGUUCGGACUGGGCAGAGCUCAACACAGCGUGGCAAAGUGGCUGUGGCUAGACUGCCUCUCUGGAUUCCUCGUCACUCAGCAGGGCAUCUCUGAGGGAAAAGCC [U47C A138G U143A] | 1.44 |
| UACGUAGGUGGUUUUCCCCUGAUAGUGCUAAGGGGGCCUGGAAGUUCGGACUGGGCAGAGCUCAACACAGCGUGGCAAAGUGGAUGUGGCUAGACUGCCUCUCUGGAUUCCUCGUCACUCGGCAGGGCAUCUCUGAGAGAAAUGCC [U47C C84A A121G] | 0.15 |
| UACGUAGGUGGUUUUCCCCUGAUAGUGCUAAGGGGGCCUGGAAGUUCGGACUGGGCAGAGCUCAACACCGCGUGGCAAAGUGGCUGUGGCUAGACUGCCUCUCCGGAUUCCUCGUCACUCAGCAGGGCAUCUCUGAGAGAAAUGCC [U47C A69C U104C] | 1.53 |
| UACGUAGGUGGUUUUCCCCUGAUAGUGCUAAGGGGGCCUGGAAGUUCGGACUGGGCAGAGCCCAACACAGCGUGGCAAAGUGGCUGUGGCUGGACUGCCUCUCUGGAUUCCUCGUAACUCAGCAGGGCAUCUCUGAGAGAAAUGCC [U47C U62C A92G C116A] | 0.06 |
| UACGUAGGUGGUUUUCCCCUGAUAGUGCUAAGGGGGCCUGGAAGUUCGGACUGGGCAGAGCUCAACACAGCGUGGCAAAGUGGCUGUGGCUUAACUGCCUCUCUGGAUUCCUCGUCACUCAGCAGGGCAUCUCUGAGAGAAAUGCC [U47C A92U G93A] | 0.05 |
| UACGUAGGUGGUUUUCCCCUGAUAGUGCUAAGGGGGCCUGGAAGUUCGGACUGGGCAGAGCUCAACACAGCGUGGCAAGGUGGCUGUGGCUAGACUGCCUCUCUGGAUUCCUCGUCACUCAGCAAGGCAUCUCUGAGAGAAAUGCC [U47C A79G G125A] | 1.17 |
| UACGUAGGUGGUUUUCCCCUGAUAGUGCUAAGGGGGCCUGGAAGUUCGGACUGGGCAGAGCUCAACACAGCGUGGCAAAGUGGCUGUGGCUAGACUGCCUCUCUGGAUUCCUCGUCACUCAGAAGGGCAUCCCUGAGAGAAAUGCC [U47C C123A U132C] | 1.04 |
| UACGUAGGUGGUUUUCCCCUGAUAGUGCUAAGGGGGCCUGGAAGUUCGGACUGGGCAGAGCUCAACACAGCGUGGCAAAGUGGCUGUGGCUAGACUGCCUCUCUGGAUUCCUCGUCACUCAGCAGGGCAUCUCUGGGAGAAGUGCC [U47C A136G A142G] | 1.97 |
| UACGUAGGUGGUUUUCCCCUGAUAGUGCUAAGGGGGCCUGGAAGUUCGGACCGGGCAGAGCUCAACACAGCGUGGCAAAGUGGCUGUGGCUUGACUGCCUCUCUGGAUUCCUCGUCACUCAGCAGGGCAUCUCUGAGAGAAGUGCC [U47C U52C A92U A142G] | 1.84 |
| UACGUAGGUGGUUUUCCCCUGAUAGUGCUAAGGGGGCCUGGAAGUUCGGACUGGGCAGAGCUCAACACAGCGUGGCGAAGUGGCUGUGGCUAGACUGCCUCUCUGGAUUCCUAGUCACUCAGCAGGGCAUCUCAGAGAGAAAUGCC [U47C A77G C113A U134A] | 1.94 |
| UACGUAGGUGGUUUUCCCCUGAUAGUGCUAAGGGGGCCUGGAAGUUCUGACUGGGCAGAGCUCAACACAGCGUGGCAAAGUGGCUGUGGCUAGACUGCCUCUCUGGAUUCCUCGUCACUCAGCGGGGCAUCUCUGAGAGAAAUGCC [U47C G48U A124G] | 0.52 |
| UACGUAGGUGGUUUUCCCCUGAUAGUGCUAAGGGGGCCUGGAAGUUCGGACUGGGCAGAGCUCAACACAGCGUGGCGAAGUGGCUGUGGCUAGACUGCCUCUCUGGAUCCCUCGUCACUCAGCAGGGCAUCUCUGAGAGAAAUGCC [U47C A77G U109C] | 1.72 |
| UACGUAGGUGGUUUUCCCCUGAUAGUGCUAAGGGGGCCUGGAAGUUCGGACUGGGCAGAACUCAACACAGCAUGGCAAAGUGGCUGUGGCUAGACUGCCUCUCUGGAUUCCUCGUCACUCAGCAGGGCGUCUCUGAGAGAUAUGCC [U47C G60A G72A A129G A141U] | 0.03 |
| UACGUAGGUGGUUUUCCCCUGAUAGUGCUAAGGGGGCCUGGAAGUUCGGACUGGGCAGAGCUCAACACAGCGGGGCAAAGUGGCUGUGGCUAGACUGCCUCUCUGGAUUCCUCGUCACUCAGCAGGGCAUUUCUGAGAGAAAUGCC [U47C U73G C131U] | 1.74 |
| UACGUAGGUGGUUUUCCCCUGAUAGUGCUAAGGGGGCCUGGAAGUUCGGACUGGGCAGAGCUCAACACGGCGUGGCAAAGUGGCUGUGGCUAGACUGCCUCUCUGGAUUCCUCGUCUCUCAGCAGGGCAUCUCUGAGAGAAAUGCC [U47C A69G A117U] | 0.96 |
| UACGUAGGUGGUUUUCCCCUGAUAGUGCUAAGGGGGCCUGGAAGUUCGGACGGGGCAGAGCUCAACACAGCGUGGCAAAGUGGCUGUGGCUAGGCUGCCUCUCUGGAUUCCUCGUCACUCAGCAGGGCAUCUCUGAGAGAGAUGCC [U47C U52G A94G A141G] | 0.66 |

| Variant | self-cleavage |
| --- | --- |
| UACGUAGGUGGUUUUCCCCUGAUAGUGCUAAGGGGGCCUGGAAGUUCGGACUGGGCAGAGCUCUACACAGCGUGGCAAAGUGGCUGUGGCUAGACUGCCUCUCUGGAUUCCUCGUCGCUCAGCAGGGCAUCUCUGAGAGUAAUGCC [U47C A64U A117G A140U] | 1.01 |
| UACGUAGGUGGUUUUCCCCUGAUAGUGCUAAGGGGGCCUGGAAGUUCGGACUGGGCAGAGCCCAACACAGCGUGGCGAAGUGGCUGUGGCUAGACAGCCUCUCUGGAUUCCUCGUCACUCAGCAGGGCAUCUCUGAGGGAAAUGCC [U47C U62C A77G U96A A138G] | 0.2 |
| UACGUAGGUGGUUUUCCCCUGAUAGUGCUAAGGGGGCCUGGAAGUUCGGACUGGGCAGAGCUCAACACAGCGUAGCAAGGUGGCUGUGGCUAGACUGCCUCUCUGGAUCCCUCGUCACUCAGCAGGGCAUCUCUGAGAGAAAUGCC [U47C G74A A79G U109C] | 1.15 |
| UACGUAGGUGGUUUUCCCCUGAUAGUGCUAAGGGGGCCUGGAAGUUCGGACUGGGAAGAGCUCAACACAGCGUGGCAAAGUGGCUGUGGCUAGACUGCCUCUCUGGAUUCCUCGUCACUCAGCAGGGCAUCUCUGAGAGGAAUGCC [U47C C56A A140G] | 0.07 |
| UACGUAGGUGGUUUUCCCCUGAUAGUGCUAAGGGGGCCUGGAAGUUCGGACAGGGCAGAGCUCAACACAGCGCGGCAAAGUGGCUGUGGCUAGACUGCCUCUCUGGAUUCCUCGACACUCAGCAGGGCAUCUCUGAGAGAAAUGCC [U47C U52A U73C U115A] | 0.88 |
| UACGUAGGUGGUUUUCCCCUGAUAGUGCUAAGGGGGCCUGGAAGUUCGGACUGGGCAGAGCUCUACACAGCGUGGCAAAGUGGCUGUGGCUAGACUGCCUCUCUGGAUUCCUCGUCACUCAGCGGGGCAUCUCUGAGAGAAAUGCC [U47C A64U A124G] | 0.37 |
| UACGUAGGUGGUUUUCCCCUGAUAGUGCUAAGGGGGCCUGGAAGUUCGGACUGGGCAGAGCUCAACACGGCGUGGCAAAGUGGCUGUGGCUAGACUGCCUCUCUGGAUCCCUCGUCACUCAGCAGGGCAUCUCUGAGAGAAAUGCC [U47C A69G U109C] | 0.66 |
| UACGUAGGUGGUUUUCCCCUGAUAGUGCUAAGGGGGCCUGGAAGUUCGGACUGGGCAGAGCUCUACACAGCGUGGCAUAGUGGCUGUGGCUAGACUGCCUCUCUGGAUUCCUCGUCACUCAGCAGGGCAUCUCUGGGAGAAAUGCC [U47C A64U A78U A136G] | 0.62 |
| UACGUAGGUGGUUUUCCCCUGAUAGUGCUAAGGGGGCCUGGAAGUUCGGACUGGGCAGAGCUCAACACAGCGUGGCAAAGUGGCUGUGGCUAGCCUGCCUCUCUGGAUUCCUCGACACUCAGCAGGGCAUCUCUGAGAGAAAUGCC [U47C A94C U115A] | 0.06 |
| UACGUAGGUGGUUUUCCCCUGAUAGUGCUAAGGGGGCCUGGAAGUUCGGACUGGGCAGAGCUCAACACAGUGUGGCAAAGAGGCUGUGGCUAGACUGCCUCUCUGGAUUCCUCGUCACUCAGCAGGGCAUCUCUGAGAGAAAUGCC [U47C C71U U81A] | 1.21 |
| UACGUAGGUGGUUUUCCCCUGAUAGUGCUAAGGGGGCCUGGAAGUUCGGACUGGUCAGAGCUCAACACAGCGUGGCAAAGUGGCUGUGGCUAGACUGCCUCUCUGGAUUCCUCGUCACUCAGCAGGGCAUCUCCGAGAGAAAUGCC [U47C G55U U134C] | 0.61 |
| UACGUAGGUGGUUUUCCCCUGAUAGUGCUAAGGGGGCCUGGAAGUUCGGACUGGGCAGAGCUCAACACAGCGUGGCAAAGUGGCUGUGGCUAGACUGCCUCUCUGGAUUCCUCGUCACUCAGCAGGGCGUCUCUGAGAGAAAAGCC [U47C A129G U143A] | 2.45 |
| UACGUAGGUGGUUUUCCCCUGAUAGUGCUAAGGGGGCCUGGAAGUUCGGACUGGGCAGAGCUCGACACAGCGUGGCAAAGUGGCUGUGGCUAGACUGCCUCUCUGGAUUCCUCGUCACUCAGCUGGGCAUCUCUGAGAGAAAUGCC [U47C A64G A124U] | 0.52 |
| UACGUAGGUGGUUUUCCCCUGAUAGUGCUAAGGGGGCCUGGAAGUUCGGACUGGGCAGUGCUCAACACAGCGAGGCAAAGUGGCUGUGGCUAGACUGCCUCUCUGGAUUCCUCGUCACUCUGCAGGGCAUCUCCGAGAGGAAUGCC [U47C A59U U73A A121U U134C A140G] | 1.4 |
| UACGUAGGUGGUUUUCCCCUGAUAGUGCUAAGGGGGCCUGGAAGUUCGGACUGGGCAGAGCUCAACACUGCGUGGCAAAGUGGCUGUGGCUAGACUGCCUCUCUGGAUACCUCGACACUCAGCAGGGCAUCUCUGAGAGAAAUGCC [U47C A69U U109A U115A] | 0.03 |
| UACGUAGGUGGUUUUCCCCUGAUAGUGCUAAGGGGGCCUGGAAGUUCGGACUGGGCAGAGCUCAACACAGCGAGGCAGAGUGGCUGUGGCUAGACUGCCUCUCUGGAUUCCUCGUCACUCAGCAGGGCAUCUCUGAGAGAAAUGCC [U47C U73A A78G] | 0.27 |
| UACGUAGGUGGUUUUCCCCUGAUAGUGCUAAGGGGGCCUGGAAGUUCGGACUGGGCUGAGCUCAACACAGCGUGGCAAAGUGGCUGUGGCUAGACUGCCUCUCUGGAUUCCUCGUCACUCAGCAGGGCAUCUCUGAGGGAAAUGCC [U47C A57U A138G] | 0.29 |
| UACGUAGGUGGUUUUCCCCUGAUAGUGCUAAGGGGGCCUGGAAGUUCGGACUGGGCUGAGCUCAACACAGCGUGGCAAAGUGGCUGUGGCUAGGCUGCCUCUCUGGAUUCCUCGUCACUCAGCAGGGCAUCUCUGAGAGAAGUGCC [U47C A57U A94G A142G] | 0 |
| UACGUAGGUGGUUUUCCCCUGAUAGUGCUAAGGGGGCCUGGAAGUUCGGACUGGGUAGAGCUCAACACAGCGUGGCAAAGUGGCUGUGGCUAGACAGCCUCUCUGGAUUCCUCGUCACUCAGCAGGGCAUCUCAGAGAGAAAUGCC [U47C C56U U96A U134A] | 0.01 |
